The results in this text go back to the supplement of paper PMC11876631.

The target of this series is Escherichia coli (laboratory strain). As to the kind of experiment: barcode share on antibiotic plates over drug-free plates; higher = less susceptible. How it is done:
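A pool of E. coli strains, each edited to carry one amino-acid change in an essential protein, was grown for 48 h on minimal glucose agar with or without antibiotic; strain barcodes were sequenced; mean of two replicates.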

[1] abbreviates: antibiotic: carbenicillin, 2× MIC (3.1 µg/mL).
The mark [2] stands for this setting: antibiotic: gentamicin, 2× MIC (MIC 0.45 µg/mL).

± gives the standard deviation of the averaged measurements. Laboratory Escherichia coli strains with one amino-acid change in an essential protein, pooled on minimal glucose agar with carbenicillin or gentamicin at twice the control MIC (plus kanamycin and chloramphenicol for the plasmids), 48 h. Fold change of barcode share against drug-free plates; higher = less susceptible. Active = above 20 in both replicates (the paper's putatively resistant). '<' = one read or none on drug, '>' = one read or none on a drug-free plate. Shares are relative, so most strains fall below 1 when a few take over. Listed are strains with at least 15 reads on both drug-free plates, and hits; most hits rest on fewer reference reads. Replicate rank correlation about 0.5. Edits are read from barcodes.

B1: mraY M78D (protein)
chain: MLVWLAEHLVKYYSGFNVFSYLTFRAIVSLLTALFISLWMGPRMIAHLQKLSFGQVVRNDGPESHFSKRGTPTMGGIDILTAIVISVLLWAYPSNPYVWCVLVVLVGYGVIGFVDDYRKVVRKDTKGLIARWKYFWMSVIALGVAFALYLAGKDTPATQLVVPFFKDVMPQLGLFYILLAYFVIVGTGNAVNLTDGLDGLAIMPTVFVAGGFALVAWATGNMNFASYLHIPYLRHAGELVIVCTAIVGAGLGFLWFNTYPAQVFMGDVGSLALGGALGIIAVLLRQEFLLVIMGGVFVVETLSVILQVGSFKLRGQRIFRMAPIHHHYELKGWPEPRVIVRFWIISLMLVLIGLATLKVR
As for B1, the “fold change of barcode share” value under setting [1] was 1.2 ± 1.4 and the “fold change of barcode share” value under setting [2] was below 0.0195.

B2: mraY I79A (protein)
chain: MLVWLAEHLVKYYSGFNVFSYLTFRAIVSLLTALFISLWMGPRMIAHLQKLSFGQVVRNDGPESHFSKRGTPTMGGIMALTAIVISVLLWAYPSNPYVWCVLVVLVGYGVIGFVDDYRKVVRKDTKGLIARWKYFWMSVIALGVAFALYLAGKDTPATQLVVPFFKDVMPQLGLFYILLAYFVIVGTGNAVNLTDGLDGLAIMPTVFVAGGFALVAWATGNMNFASYLHIPYLRHAGELVIVCTAIVGAGLGFLWFNTYPAQVFMGDVGSLALGGALGIIAVLLRQEFLLVIMGGVFVVETLSVILQVGSFKLRGQRIFRMAPIHHHYELKGWPEPRVIVRFWIISLMLVLIGLATLKVR
Regarding B2, the “fold change of barcode share” value runs as follows: under setting [1], 0.32 ± 0.14; under setting [2], below 0.00406.

B3: mraY V87A (protein)
chain: MLVWLAEHLVKYYSGFNVFSYLTFRAIVSLLTALFISLWMGPRMIAHLQKLSFGQVVRNDGPESHFSKRGTPTMGGIMILTAIVISALLWAYPSNPYVWCVLVVLVGYGVIGFVDDYRKVVRKDTKGLIARWKYFWMSVIALGVAFALYLAGKDTPATQLVVPFFKDVMPQLGLFYILLAYFVIVGTGNAVNLTDGLDGLAIMPTVFVAGGFALVAWATGNMNFASYLHIPYLRHAGELVIVCTAIVGAGLGFLWFNTYPAQVFMGDVGSLALGGALGIIAVLLRQEFLLVIMGGVFVVETLSVILQVGSFKLRGQRIFRMAPIHHHYELKGWPEPRVIVRFWIISLMLVLIGLATLKVR
Regarding B3, the “fold change of barcode share” value was found to be 0.471 ± 0.22 under setting [1] and 0.00412 ± 0.0019 under setting [2].

B4: mraY I79Q (protein)
chain: MLVWLAEHLVKYYSGFNVFSYLTFRAIVSLLTALFISLWMGPRMIAHLQKLSFGQVVRNDGPESHFSKRGTPTMGGIMQLTAIVISVLLWAYPSNPYVWCVLVVLVGYGVIGFVDDYRKVVRKDTKGLIARWKYFWMSVIALGVAFALYLAGKDTPATQLVVPFFKDVMPQLGLFYILLAYFVIVGTGNAVNLTDGLDGLAIMPTVFVAGGFALVAWATGNMNFASYLHIPYLRHAGELVIVCTAIVGAGLGFLWFNTYPAQVFMGDVGSLALGGALGIIAVLLRQEFLLVIMGGVFVVETLSVILQVGSFKLRGQRIFRMAPIHHHYELKGWPEPRVIVRFWIISLMLVLIGLATLKVR
Turning to B4, the “fold change of barcode share” value is, setting by setting: under setting [1], 0.204 ± 0.049; under setting [2], below 0.00639.

B5: mraY V87Q (protein)
chain: MLVWLAEHLVKYYSGFNVFSYLTFRAIVSLLTALFISLWMGPRMIAHLQKLSFGQVVRNDGPESHFSKRGTPTMGGIMILTAIVISQLLWAYPSNPYVWCVLVVLVGYGVIGFVDDYRKVVRKDTKGLIARWKYFWMSVIALGVAFALYLAGKDTPATQLVVPFFKDVMPQLGLFYILLAYFVIVGTGNAVNLTDGLDGLAIMPTVFVAGGFALVAWATGNMNFASYLHIPYLRHAGELVIVCTAIVGAGLGFLWFNTYPAQVFMGDVGSLALGGALGIIAVLLRQEFLLVIMGGVFVVETLSVILQVGSFKLRGQRIFRMAPIHHHYELKGWPEPRVIVRFWIISLMLVLIGLATLKVR
On to B5, for which the “fold change of barcode share” value under setting [1] came to 0.298 ± 0.18 and the “fold change of barcode share” value under setting [2] stood at 0.0113 ± 0.0046.

B6: mraY I79P (protein)
chain: MLVWLAEHLVKYYSGFNVFSYLTFRAIVSLLTALFISLWMGPRMIAHLQKLSFGQVVRNDGPESHFSKRGTPTMGGIMPLTAIVISVLLWAYPSNPYVWCVLVVLVGYGVIGFVDDYRKVVRKDTKGLIARWKYFWMSVIALGVAFALYLAGKDTPATQLVVPFFKDVMPQLGLFYILLAYFVIVGTGNAVNLTDGLDGLAIMPTVFVAGGFALVAWATGNMNFASYLHIPYLRHAGELVIVCTAIVGAGLGFLWFNTYPAQVFMGDVGSLALGGALGIIAVLLRQEFLLVIMGGVFVVETLSVILQVGSFKLRGQRIFRMAPIHHHYELKGWPEPRVIVRFWIISLMLVLIGLATLKVR
As for B6, the “fold change of barcode share” value under setting [1] came to 0.269 ± 0.2 and the “fold change of barcode share” value under setting [2] is below 0.00626.

B7: mraY V162P (protein)
chain: MLVWLAEHLVKYYSGFNVFSYLTFRAIVSLLTALFISLWMGPRMIAHLQKLSFGQVVRNDGPESHFSKRGTPTMGGIMILTAIVISVLLWAYPSNPYVWCVLVVLVGYGVIGFVDDYRKVVRKDTKGLIARWKYFWMSVIALGVAFALYLAGKDTPATQLVPPFFKDVMPQLGLFYILLAYFVIVGTGNAVNLTDGLDGLAIMPTVFVAGGFALVAWATGNMNFASYLHIPYLRHAGELVIVCTAIVGAGLGFLWFNTYPAQVFMGDVGSLALGGALGIIAVLLRQEFLLVIMGGVFVVETLSVILQVGSFKLRGQRIFRMAPIHHHYELKGWPEPRVIVRFWIISLMLVLIGLATLKVR
B7: the “fold change of barcode share” value runs as follows: under setting [1], 0.166 ± 0.021; under setting [2], 0.0391 ± 0.046.

B8: mraY V162Q (protein)
chain: MLVWLAEHLVKYYSGFNVFSYLTFRAIVSLLTALFISLWMGPRMIAHLQKLSFGQVVRNDGPESHFSKRGTPTMGGIMILTAIVISVLLWAYPSNPYVWCVLVVLVGYGVIGFVDDYRKVVRKDTKGLIARWKYFWMSVIALGVAFALYLAGKDTPATQLVQPFFKDVMPQLGLFYILLAYFVIVGTGNAVNLTDGLDGLAIMPTVFVAGGFALVAWATGNMNFASYLHIPYLRHAGELVIVCTAIVGAGLGFLWFNTYPAQVFMGDVGSLALGGALGIIAVLLRQEFLLVIMGGVFVVETLSVILQVGSFKLRGQRIFRMAPIHHHYELKGWPEPRVIVRFWIISLMLVLIGLATLKVR
On to B8, for which the “fold change of barcode share” value by setting is: under setting [1], 0.377 ± 0.13; under setting [2], 0.038 ± 0.032.

B9: mraY I184Q (protein)
chain: MLVWLAEHLVKYYSGFNVFSYLTFRAIVSLLTALFISLWMGPRMIAHLQKLSFGQVVRNDGPESHFSKRGTPTMGGIMILTAIVISVLLWAYPSNPYVWCVLVVLVGYGVIGFVDDYRKVVRKDTKGLIARWKYFWMSVIALGVAFALYLAGKDTPATQLVVPFFKDVMPQLGLFYILLAYFVQVGTGNAVNLTDGLDGLAIMPTVFVAGGFALVAWATGNMNFASYLHIPYLRHAGELVIVCTAIVGAGLGFLWFNTYPAQVFMGDVGSLALGGALGIIAVLLRQEFLLVIMGGVFVVETLSVILQVGSFKLRGQRIFRMAPIHHHYELKGWPEPRVIVRFWIISLMLVLIGLATLKVR
Take B9: the “fold change of barcode share” value amounted to 0.216 ± 0.067 under setting [1] and 0.00985 ± 0.011 under setting [2].

B10: mraY V87D (protein)
chain: MLVWLAEHLVKYYSGFNVFSYLTFRAIVSLLTALFISLWMGPRMIAHLQKLSFGQVVRNDGPESHFSKRGTPTMGGIMILTAIVISDLLWAYPSNPYVWCVLVVLVGYGVIGFVDDYRKVVRKDTKGLIARWKYFWMSVIALGVAFALYLAGKDTPATQLVVPFFKDVMPQLGLFYILLAYFVIVGTGNAVNLTDGLDGLAIMPTVFVAGGFALVAWATGNMNFASYLHIPYLRHAGELVIVCTAIVGAGLGFLWFNTYPAQVFMGDVGSLALGGALGIIAVLLRQEFLLVIMGGVFVVETLSVILQVGSFKLRGQRIFRMAPIHHHYELKGWPEPRVIVRFWIISLMLVLIGLATLKVR
Turning to B10, the “fold change of barcode share” value by setting is: under setting [1], 0.7116 ± 0.00083; under setting [2], below 0.00671.

B11: mreB V39A (protein)
chain: MLKKFRGMFSNDLSIDLGTANTLIYVKGQGIVLNEPSVAAIRQDRAGSPKSVAAVGHDAKQMLGRTPGNIAAIRPMKDGVIADFFVTEKMLQHFIKQVHSNSFMRPSPRVLVCVPVGATQVERRAIRESAQGAGAREVFLIEEPMAAAIGAGLPVSEATGSMVVDIGGGTTEVAVISLNGVVYSSSVRIGGDRFDEAIINYVRRNYGSLIGEATAERIKHEIGSAYPGDEVREIEVRGRNLAEGVPRGFTLNSNEILEALQEPLTGIVSAVMVALEQCPPELASDISERGMVLTGGGALLRNLDRLLMEETGIPVVVAEDPLTCVARGGGKALEMIDMHGGDLFSEE
Regarding B11, the “fold change of barcode share” value worked out at 0.151 ± 0.0027 under setting [1] and 0.477 ± 0.67 under setting [2].

B12: mreB F85A (protein)
chain: MLKKFRGMFSNDLSIDLGTANTLIYVKGQGIVLNEPSVVAIRQDRAGSPKSVAAVGHDAKQMLGRTPGNIAAIRPMKDGVIADFAVTEKMLQHFIKQVHSNSFMRPSPRVLVCVPVGATQVERRAIRESAQGAGAREVFLIEEPMAAAIGAGLPVSEATGSMVVDIGGGTTEVAVISLNGVVYSSSVRIGGDRFDEAIINYVRRNYGSLIGEATAERIKHEIGSAYPGDEVREIEVRGRNLAEGVPRGFTLNSNEILEALQEPLTGIVSAVMVALEQCPPELASDISERGMVLTGGGALLRNLDRLLMEETGIPVVVAEDPLTCVARGGGKALEMIDMHGGDLFSEE
In the case of B12, the “fold change of barcode share” value is 0.26 ± 0.022 under setting [1] and below 0.0087 under setting [2].

B13: mreB F85Q (protein)
chain: MLKKFRGMFSNDLSIDLGTANTLIYVKGQGIVLNEPSVVAIRQDRAGSPKSVAAVGHDAKQMLGRTPGNIAAIRPMKDGVIADFQVTEKMLQHFIKQVHSNSFMRPSPRVLVCVPVGATQVERRAIRESAQGAGAREVFLIEEPMAAAIGAGLPVSEATGSMVVDIGGGTTEVAVISLNGVVYSSSVRIGGDRFDEAIINYVRRNYGSLIGEATAERIKHEIGSAYPGDEVREIEVRGRNLAEGVPRGFTLNSNEILEALQEPLTGIVSAVMVALEQCPPELASDISERGMVLTGGGALLRNLDRLLMEETGIPVVVAEDPLTCVARGGGKALEMIDMHGGDLFSEE
Regarding B13, the “fold change of barcode share” value was 0.42 ± 0.0056 under setting [1] and below 0.00495 under setting [2].
